Results taken from the supplement of paper PMC5919970.
Where a name gives a salt, the structure may show the parent alone. In all, about 2,000 compounds were measured (“fractional viability relative to vehicle”: median about 0.92, lowest 2% from about 0.11 on). Some of the results follow.

Test system: TYKNU
Assay: fractional viability relative to vehicle; TYKNU is a high-grade serous ovarian cancer line; higher = less growth inhibition
Conditions: 72 h, genotype: OPA1 knockout (sgOPA1 #2)
Method in brief: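 TYKNU control cells or lentiCRISPRv2 knockout derivatives were plated at 500 cells per well in duplicate into drug-stamped 384-well plates holding a ~2100-compound library at 2 or 10 μM. Culture was in RPMI 1640 with 10% FBS at 37 °C in 5% CO2, with 72 h of drug treatment. Viability was measured by Cell Titer Glo luminescence, and the averaged duplicate treatment wells were normalised to duplicate control wells at the same plate position.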

Structure (SMILES): N#CSc1cc(SC#N)c(N)nc1N
- fractional viability (2uM): 0.754
- fractional viability (10uM): 0.24

Structure (SMILES): CC(=O)Nc1nc2c(Oc3cc(-c4ccc(C(F)(F)F)cc4)ncn3)cccc2s1
- fractional viability (2uM): 0.977
- fractional viability (10uM): 1.16

Structure (SMILES): N[C@@H](Cc1c[nH]c2ccc(O)cc12)C(=O)O [5-hydroxytryptophan (5-HTP)]
- fractional viability (2uM): 1.06
- fractional viability (10uM): 0.895

Structure (SMILES): CC(C)n1nc(-c2ccc3oc(N)nc3c2)c2c(N)ncnc21
- fractional viability (2uM): 0.393
- fractional viability (10uM): 0.333

Structure (SMILES): O=C(O)c1cc(C(F)(F)F)ccc1N1CC[C@H](OCc2ccccn2)C1
- fractional viability (2uM): 0.855
- fractional viability (10uM): 0.787

Structure (SMILES): N=C(N)Nc1ccc(C(=O)Oc2ccc3cc(C(=N)N)ccc3c2)cc1 [Nafamostat Mesylate]
- fractional viability (2uM): 1.13
- fractional viability (10uM): 1.11

Structure (SMILES): NC(=O)c1nc(F)cnc1O [Favipiravir (T-705)]
- fractional viability (2uM): 0.744
- fractional viability (10uM): 0.765

Structure (SMILES): O=C(NO)c1cccc(C(=O)NCCc2ccccc2)c1
- fractional viability (2uM): 0.926
- fractional viability (10uM): 0.933

Structure (SMILES): C[C@]12CC[C@H](O)CC1=CC[C@@H]1[C@@H]2CC[C@]2(C)C(n3cnc4ccccc43)=CC[C@@H]12 [Galeterone]
- fractional viability (2uM): 0.858
- fractional viability (10uM): 0.864

Structure (SMILES): CC1=C(/C=C/C(C)=C/C=C/C(C)=C/C(=O)O)C(C)(C)CCC1 [Tretinoin]
- fractional viability (2uM): 0.691
- fractional viability (10uM): 0.801

Structure (SMILES): CC(=O)Oc1ccccc1C(=O)O [Aspirin]
- fractional viability (2uM): 0.917
- fractional viability (10uM): 1.09

Structure (SMILES): CNS(=O)(=O)CCc1ccc2[nH]cc(C3CCN(C)CC3)c2c1 [Naratriptan]
- fractional viability (2uM): 1.16
- fractional viability (10uM): 0.985

Structure (SMILES): COc1ccc2ccc(=O)oc2c1CC=C(C)C [Osthole]
- fractional viability (2uM): 0.99
- fractional viability (10uM): 1.05

Structure (SMILES): O=C(Nc1nc2cccc(-c3ccc(CN4CCS(=O)(=O)CC4)cc3)n2n1)C1CC1 [Filgotinib (GLPG0634)]
- fractional viability (2uM): 0.887
- fractional viability (10uM): 0.479

Structure (SMILES): N=C(N)NS(=O)(=O)c1ccc(N)cc1 [Sulfaguanidine]
- fractional viability (2uM): 0.966
- fractional viability (10uM): 0.96

Structure (SMILES): CC1(C)[C@H](C(=O)O)N2C(=O)C[C@H]2S1(=O)=O [Sulbactam]
- fractional viability (2uM): 1.08
- fractional viability (10uM): 0.954

Structure (SMILES): CC1(C)[C@H](C(=O)O)N2C(=O)C[C@H]2S1(=O)=O [Sulbactam sodium]
- fractional viability (2uM): 1.1
- fractional viability (10uM): 0.999

Structure (SMILES): Cc1ncc(CO)c(CO)c1O [Pyridoxine HCl]
- fractional viability (2uM): 0.902
- fractional viability (10uM): 1.02

Structure (SMILES): O=C(O)c1ccc(-c2c[nH]c3ncc(-c4ccccc4)cc23)cc1C1CCCC1
- fractional viability (2uM): 0.98
- fractional viability (10uM): 1.11

Structure (SMILES): C=CC(=O)Nc1cc(Nc2nccc(-c3c[nH]c4ccccc34)n2)c(OC)cc1N(C)CCN(C)C
- fractional viability (2uM): 0.542
- fractional viability (10uM): 0.0815

Structure (SMILES): Cc1ccc(NCCCc2ccccc2)c(N)c1
- fractional viability (2uM): 0.805
- fractional viability (10uM): 1.03

Structure (SMILES): C=CC(=O)Nc1cc(Nc2nccc(-c3cn(C)c4ccccc34)n2)c(OC)cc1N(C)CCN(C)C
- fractional viability (2uM): 0.766
- fractional viability (10uM): 0.0725

Structure (SMILES): C#Cc1cccc(Nc2ncnc3cc4c(cc23)OCCOCCOCCO4)c1 [Icotinib]
- fractional viability (2uM): 1.12
- fractional viability (10uM): 1.3

Structure (SMILES): CC(C)c1ccc(NC(=O)Cn2cnc3c2c(=O)n(C)c(=O)n3C)cc1
- fractional viability (2uM): 0.962
- fractional viability (10uM): 0.898

Structure (SMILES): C[C@H](NC(=O)/C(C#N)=C/c1cccc(Br)n1)c1ccccc1
- fractional viability (2uM): 0.867
- fractional viability (10uM): 0.0926

Structure (SMILES): CCNC(=O)c1[nH]nc(-c2cc(Cl)c(O)cc2O)c1-c1ccc(OC)cc1
- fractional viability (2uM): 0.758
- fractional viability (10uM): 0.515

Structure (SMILES): C[C@]12CC[C@@H]3c4ccc(O)cc4CC[C@H]3[C@@H]1CC[C@@H]2O [Estradiol]
- fractional viability (2uM): 1.16
- fractional viability (10uM): 0.962

Structure (SMILES): CCCN(CCC)S(=O)(=O)c1ccc(C(=O)O)cc1 [Probenecid]
- fractional viability (2uM): 1.13
- fractional viability (10uM): 0.846

Structure (SMILES): CCNC(=O)Nc1ccc(-c2nc3c(c(N4CCOC[C@@H]4C)n2)CCN(C2COC2)C3)cc1
- fractional viability (2uM): 0.849
- fractional viability (10uM): 0.848

Structure (SMILES): CC(=O)[C@H]1CC[C@H]2[C@@H]3CCC4=CC(=O)CC[C@]4(C)[C@H]3CC[C@]12C [Progesterone]
- fractional viability (2uM): 0.973
- fractional viability (10uM): 0.82

Structure (SMILES): Cn1cc(CNCC2CCN(c3ncc(C(=O)NO)cn3)CC2)c2ccccc21
- fractional viability (2uM): 0.224
- fractional viability (10uM): 0.19

Structure (SMILES): CN(C)CC/C=C1/c2ccccc2Sc2ccc(Cl)cc21 [Chlorprothixene]
- fractional viability (2uM): 1.2
- fractional viability (10uM): 0.945

Structure (SMILES): COc1ccc2[nH]c([S+]([O-])Cc3ncc(C)c(OC)c3C)nc2n1 (stereo not given) [Tenatoprazole]
- fractional viability (2uM): 1.03
- fractional viability (10uM): 0.972

Structure (SMILES): CCOC(=O)CCNc1cc(N2CCc3ccccc3CC2)nc(-c2ccccn2)n1
- fractional viability (2uM): 0.533
- fractional viability (10uM): 0.297

Structure (SMILES): CN(C)CCOC(c1ccccc1)c1ccccc1 [Diphenhydramine HCl]
- fractional viability (2uM): 1.27
- fractional viability (10uM): 0.888

Structure (SMILES): Nc1cccc2c1C(=O)N(C1CCC(=O)NC1=O)C2=O (stereo not given) [Pomalidomide]
- fractional viability (2uM): 1.18
- fractional viability (10uM): 1.05

Structure (SMILES): Oc1ccc(OC2CCCCO2)cc1 (stereo not given) [Deoxyarbutin]
- fractional viability (2uM): 0.967
- fractional viability (10uM): 0.834

Structure (SMILES): N[C@@H](Cc1cc(I)c(Oc2cc(I)c(O)c(I)c2)c(I)c1)C(=O)O [L-Thyroxine]
- fractional viability (2uM): 1.08
- fractional viability (10uM): 1.01

Structure (SMILES): CC1(C)CCC(C)(C)c2cc(NC(=O)c3ccc(C(=O)O)cc3)ccc21 [Tamibarotene]
- fractional viability (2uM): 0.873
- fractional viability (10uM): 0.735

Structure (SMILES): COc1cc(C(=O)O)ccc1NC(=O)[C@@H]1N[C@@H](CC(C)(C)C)[C@](C#N)(c2ccc(Cl)cc2F)[C@H]1c1cccc(Cl)c1F [Idasanutlin (RG-7388)]
- fractional viability (2uM): 0.86
- fractional viability (10uM): 0.841

Structure (SMILES): O=C(O)C(O)Cc1ccc(O)c(O)c1 (stereo not given) [Sodium Danshensu]
- fractional viability (2uM): 1.04
- fractional viability (10uM): 0.885

Structure (SMILES): O=C1Nc2ccccc2/C1=C1/Nc2ccccc2C1=O [Indirubin]
- fractional viability (2uM): 0.882
- fractional viability (10uM): 0.972

Structure (SMILES): Clc1ccc(CSC(Cn2ccnc2)c2ccc(Cl)cc2Cl)cc1 (stereo not given) [Sulconazole Nitrate]
- fractional viability (2uM): 0.878
- fractional viability (10uM): 0.781

Structure (SMILES): O=C(c1ccc(Nc2nccc(-c3cc4ccccc4s3)n2)cc1)N1CCC(N2CCCC2)CC1 [IKK-16 (IKK Inhibitor VII)]
- fractional viability (2uM): 0.74
- fractional viability (10uM): 0.0971

Structure (SMILES): Nc1ncnc2c1ncn2[C@@H]1O[C@H](CO)[C@@H](O)[C@H]1O [Adenosine]
- fractional viability (2uM): 1.1
- fractional viability (10uM): 1.01

Structure (SMILES): Cc1cc(C)c(Nc2ccnc(Nc3ccc(C#N)cc3)n2)c(C)c1 [Dapivirine (TMC120)]
- fractional viability (2uM): 0.814
- fractional viability (10uM): 0.461

Structure (SMILES): Cc1cc(/C=C2/SC(=S)NC2=O)c(C)n1-c1cccnc1 [Optovin]
- fractional viability (2uM): 0.821
- fractional viability (10uM): 0.988

Structure (SMILES): Nc1ccn([C@@H]2O[C@H](CO)[C@@H](O)C2(F)F)c(=O)n1 [Gemcitabine]
- fractional viability (2uM): 0.34
- fractional viability (10uM): 0.299

Structure (SMILES): COc1ccccc1N1CCN(CCN(C(=O)C2CCCCC2)c2ccccn2)CC1
- fractional viability (2uM): 0.824
- fractional viability (10uM): 0.89

Structure (SMILES): CN(C)CCN(Cc1ccccc1)c1ccccn1 [Tripelennamine HCl]
- fractional viability (2uM): 1.04
- fractional viability (10uM): 0.894
